Reference: ChEMBL document CHEMBL1201862, “PubChem BioAssay data set” (2004)

test system: NCI-H322M; assay: NCI-60 cell line screen, 48 h

| Compound | GI50 |
| --- | --- |
| Cc1ccccc1N/C(=C(/C(Cl)=C(Cl)Cl)[N+](=O)[O-])n1nnc2ccccc21 | inactive: 21.6 µM |
| COc1cc(/C=C/c2ccnc3ccccc23)cc(OC)c1OC | inactive: 7.83 µM |
| COC(=O)C1=C(O)C(C(=O)OC)[C@]2(O)[C@H](C(=O)OC)[C@H]1C[C@@H](c1ccc(OC)cc1)[C@H]2C(=O)OC (some centres not stated) | inactive: 26.5 µM |
| COc1c(Sc2ccccc2)cc(Sc2ccccc2)c2cccnc12 | inactive: 48.6 µM |
| CC(C)=CCC/C(C)=C/C=C/C(C)=C/C1C[C@@]2(C(O)O1)[C@H](CCCO)/C(=C(/C)C=O)CC[C@]2(C)O (some centres not stated) | inactive: 12.5 µM |
| COc1cc2c(cc1OC)[C@@](C)(C(O)C(O)C(C)(C)O)NCC2 (some centres not stated) | inactive: > 100 µM |
| COc1nc(-c2cn(S(=O)(=O)c3ccc(C)cc3)c3ccc(Br)cc23)cc(C(F)(F)F)c1C#N | inactive: > 100 µM |
| O=C(O)Cc1ccc(N2N=C(c3ccccc3)CC2=O)cc1 | inactive: > 100 µM |
| CC1CNC(c2cccc(OCc3ccc(COc4cccc(C5=NC(C)CN5)c4)cc3)c2)=N1 (configuration not stated) | inactive: 73.3 µM |
| CC1(C)[C@H]2CC[C@](C)(C2)[C@]1(S)Cc1ccccn1 | inactive: > 100 µM |
| O=c1ccc2cc3ccc4cccc5ccc(c2o1)c3c45 | inactive: > 100 µM |
| O=C(O)c1ccc2c(c1)C(=O)N(c1ccc(S(=O)(=O)c3ccc(N4C(=O)c5ccc(C(=O)O)cc5C4=O)cc3)cc1)C2=O | inactive: > 100 µM |
| COc1ccc(/N=N/C(=N\c2ccc(Cl)cc2)c2ccc(N(CCC#N)CCC#N)cc2)cc1 | inactive: > 100 µM |
| CN1C(=O)CN2C(Cl)(Cl)C2(c2ccccc2F)c2cc([N+](=O)[O-])ccc21 (configuration not stated) | inactive: > 100 µM |
| O=C(N/N=C/c1ccc([N+](=O)[O-])cc1)Nc1ccc(C(=O)O)cc1 | inactive: 34.1 µM |
| COc1ccc(C(C2=C(O)CC(C)OC2=O)C2=C(O)CC(C)OC2=O)cc1 (configuration not stated) | inactive: > 100 µM |
| COc1ccc(/C=C2\CCC(C)(CN(C)C)C2=O)cc1OC (configuration not stated) | inactive: > 100 µM |
| S=C1CSc2c(ccc3ccccc23)N1 | inactive: > 100 µM |
| CSc1nc(Cl)c2c(n1)Sc1nc3cc4c(cc3n1C2O)OCO4 (configuration not stated) | inactive: 4.75 µM |
| NC(Cc1ccc(OCc2ccccc2)cc1)C(=O)NC(Cc1ccccc1)C(=O)Oc1c(Cl)c(Cl)c(Cl)c(Cl)c1Cl (configuration not stated) | inactive: 18.6 µM |
| CC(CSC(=N)N)C(N)=O (configuration not stated) | inactive: > 100 µM |
| CCOP1(=O)CC(C)=C(Cl)C(O)C1 (configuration not stated) | inactive: > 100 µM |
| COc1ccc(C2SCC(=O)N2c2ccc(-n3c(-c4ccccc4)nc4ccccc4c3=O)cc2)cc1 (configuration not stated) | inactive: > 100 µM |

| Compound | GI50 |
| --- | --- |
| COc1c2c(cc3nc4ccccc4nc13)CCC(C(C)(C)O)C2 (configuration not stated) | inactive: > 100 µM |
| O=C(Nc1nnc(-c2c(Cl)c(Cl)c(Cl)c(Cl)c2-c2nc3cc(C(=O)c4ccccc4)ccc3[nH]2)o1)c1ccc(Cl)cc1 | inactive: 44.2 µM |
| COC(=O)/C(C#N)=C1\CCC(O)N1 (configuration not stated) | inactive: > 100 µM |
| COc1ccc(/C=N/NC(=O)NCCNCCO)cc1 | inactive: > 100 µM |
| CC(C)(C)c1cc(O)c2c(c1O)C(=O)CCC2 | inactive: 66.1 µM |
| NCCSC(c1ccccc1)c1ccccc1 | inactive: 22.3 µM |
| O=C1C(c2cnc3ccccc3n2)=C(O)c2ccccc21 | inactive: > 87.9 µM |
| CC(C)(C)c1cc(OCc2nnc3sc(-c4ccc(Cl)cc4)nn23)c(Cl)cc1OCc1nnc2sc(-c3ccc(Cl)cc3)nn12 | inactive: 4.51 µM |
| Cn1nc(-c2ccccc2)c2c(-c3ccccc3)c3cc(Cl)ccc3nc21 | inactive: > 100 µM |
| Cc1c(/C=N/NC(=O)c2ccc(Cl)cc2)c(=O)n(-c2ccccc2)n1C | inactive: > 100 µM |
| N#Cc1ccc(-n2c3ccccc3c3ccc4c(c32)C(=O)C=CC4=O)cc1 | inactive: 14.6 µM |
| COC12OCCN(C)C1=CC(=O)C1(C)N=NCC12 (configuration not stated) | inactive: > 100 µM |
| CC1(C)OC2C(=O)C=C(COCc3ccccc3)C2O1 (configuration not stated) | inactive: 26.9 µM |
| COC(=O)CC(CNC(=O)OCc1ccccc1)OCc1ccc(OC)cc1 (configuration not stated) | inactive: > 100 µM |
| O=C(/C=C/c1c[nH]c2ccccc12)c1ccccc1O | inactive: 9.73 µM |
| CCP(=O)(OC)C1=CCN(C(=O)OCC[Si](C)(C)C)CC1 (configuration not stated) | inactive: > 100 µM |
| CC1(C)C2CCC1(C)[C@H](n1c(=O)n([C@@H]3CC4CCC3(C)C4(C)C)c(=O)n([C@@H]3CC4CCC3(C)C4(C)C)c1=O)C2 | inactive: > 100 µM |
| COC(=O)C1=C(CCCCO[Si](C)(C)C(C)(C)C)NC(=O)N2[C@@H](CCOCc3ccccc3)CC[C@H]12 | inactive: 40.6 µM |
| CCOc1ccc2c(c1)NC(=O)C(C1OC(c3ccccc3)=CC1=O)S2 (configuration not stated) | inactive: 41.5 µM |
| COC(=O)C(=O)C(C(=O)C(=O)Nc1ccc([N+](=O)[O-])cc1)c1nc2ccccc2nc1O (configuration not stated) | inactive: > 100 µM |
| CC1(C)OC2C(CCP(=O)(O)O)OC(c3nc(C(N)=O)cs3)C2O1 (configuration not stated) | inactive: > 100 µM |
| COc1cc(/C=C2/CCCc3ccccc3C2=O)cc(OC)c1OC | inactive: 24.4 µM |
| C=CCOC(=O)N1c2ccc(O)cc2[C@@]23O[C@@]24[C@@H]1C#C/C=C\C#C[C@]3(O)C(OC)(OC)C[C@@H]4C | inactive: 48.3 µM |

| Compound | GI50 |
| --- | --- |
| Clc1ccc(CNc2nc(Cl)c3nc[nH]c3n2)cc1Cl | inactive: 22.9 µM |
| N/C(=N\NC(=O)c1nc2ccccc2s1)c1ccccn1 | inactive: 4.74 µM |
| CC1(C)CC(=O)c2c(N)n[nH]c2C1 | inactive: > 100 µM |
| COc1ccc(C(=O)C2=NON3OC23C(=O)c2ccc(OC)cc2)cc1 (configuration not stated) | inactive: 33.7 µM |
| Cc1cc(C)nc(NS(=O)(=O)c2ccc(Nc3c4ccccc4nc4ccc(C(=O)Nc5ccc(S(N)(=O)=O)cc5)cc34)cc2)n1 | inactive: > 100 µM |
| CN(/N=C/c1ccnc2ccccc12)c1ccc(Cl)cc1[N+](=O)[O-] | inactive: > 100 µM |
| COC(=O)c1ccccc1/C=C1\Cc2c(C)cc(C)cc2C1=O | inactive: > 100 µM |
| CC(=O)Oc1cc(-c2oc3cc(OC(C)=O)c(C4OC(CO)C(O)C(O)C4O)c(OC(C)=O)c3c(=O)c2O)c(OC(C)=O)cc1O (configuration not stated) | inactive: 83.4 µM |
| CCOC(=O)C1(N)CCc2[nH][nH]c(=O)c2C1 (configuration not stated) | inactive: > 100 µM |
| CCCC[S+]([O-])CCC(N)P(=O)(O)O (configuration not stated) | inactive: > 100 µM |
| CC1=C(C)CC(C#N)(C#N)C(C#N)(C#N)C1 | inactive: > 10 µM |
| CC1=C(C(=O)Nc2ccccc2)C(c2cc(Cl)cc(Cl)c2)C(C(=O)Nc2ccccc2)=C(C)N1 | inactive: 12.5 µM |
| CN(C)CCNC(=O)Cn1ccc(=O)c2c([N+](=O)[O-])cccc21 | inactive: > 100 µM |
| Cn1c2c(c3ccccc31)CC1c3c(c4ccccc4n3C)CC21 (configuration not stated) | inactive: > 100 µM |
| COc1ccc(-c2nc(SCC(=O)N/N=C/c3ccc(N(C)C)cc3)[nH]c2-c2ccc(OC)cc2)cc1 | inactive: > 100 µM |
| O=c1[nH]cc(F)c(=O)n1C1OC(CO)C(O)C1O (configuration not stated) | inactive: > 100 µM |
| O=C1C2C3CC(C4C5C=CC(C5)C34)C2C2C3CC(C12)C1C2C=CC(C2)C31 (configuration not stated) | inactive: > 100 µM |
| CC(=O)N(C)OC(=O)CC(=O)c1ccccc1 | inactive: > 100 µM |
| C[C@H](NS(=O)(=O)c1ccc(NC(=O)c2ccccc2)cc1)C(=O)O | inactive: > 100 µM |
| c1ccc([P+](c2ccccc2)(c2ccccc2)C2Sc3ccccc3S2)cc1 | inactive: 34.6 µM |
| Cc1nnc2n1N=C(CC(=O)c1ccc(O)cc1O)CN2N | inactive: > 100 µM |
| COc1cccc(C(=O)Nc2c3ccccc3nc3ccccc23)c1OC | inactive: > 100 µM |
| [N-]=[N+]=CC(=O)OC1Cc2ccccc2C1 | inactive: 98.6 µM |

| Compound | GI50 |
| --- | --- |
| COc1ccc(C)cc1NC(=S)C#N | inactive: > 100 µM |
| CCOC(=N)CC(=O)Nc1cccc(Cl)c1 | inactive: > 100 µM |
| CC(=O)N(CC(=O)C(=O)NNc1ccoc1)c1ccc(Cl)cc1 | inactive: > 100 µM |
| CCC(C)C(NC(=O)c1c2ccccc2nc2ccccc12)C(=O)O (configuration not stated) | inactive: > 100 µM |
| [O-][n+]1c2cc3c(cc2[n+]([O-])c2c(O)cccc21)CN(CCN1CCOCC1)C3 | inactive: 36 µM |
| c1ccc(-c2csc3c2-n2cccc2C3N2CCCC2)cc1 (configuration not stated) | inactive: > 100 µM |
| C1CSCC2(COC2)CSCCSCC2(COC2)CS1 | inactive: > 100 µM |
| ClCCc1ccccc1CC1=NCCc2ccccc21 | inactive: > 100 µM |
| Cc1c(C(=O)c2ccccc2C(=O)O)c2ccccc2n1C | inactive: > 100 µM |
| CCOC(=O)c1nc2ccc(C(F)(F)F)cc2nc1Oc1ccc(C#N)cc1 | inactive: 36.8 µM |
| Cc1nc2c(n1Cc1ccc(F)cc1)C(=O)c1ccccc1C2=O | inactive: 40.5 µM |
| C=C(C)C1Cc2c(c3ccccc3n(C)c2=O)O1 (configuration not stated) | inactive: > 100 µM |
| CC(=O)NS(=O)(=O)c1ccc(NCc2cccc3c(=O)c4ccc(Cl)cc4oc23)cc1 | inactive: 68.5 µM |
| CC(=O)C1=C(C)N2C(=NC3=C(CCc4ccccc43)C2c2ccc(Cl)cc2)S1 (configuration not stated) | inactive: > 47.4 µM |
| O=c1n(-c2ccccc2)c(=O)n2n1C1Cc3ccccc3C12 (configuration not stated) | inactive: > 100 µM |
| COC(=O)c1cc2c(cc1O)[C@@H](NC(C)=O)CCc1cc(OC)c(OC)c(OC)c1-2 | active: 0.042 µM |
| COc1cc2nc(Cl)nc(NS(=O)(=O)c3cc4ccccc4s3)c2cc1OC | inactive: 19.6 µM |
| O=S(=O)(O)c1cc(/N=N/c2cc(S(=O)(=O)O)c3ccccc3c2O)ccc1/C=C/c1ccc(/N=N/c2cc(S(=O)(=O)O)c3ccccc3c2O)cc1S(=O)(=O)O | inactive: > 459 µM |
| C[C@H]1[C@@H](c2ccccc2)O[B-](c2ccccc2)(c2ccccc2)[N+]1(C)C | inactive: > 100 µM |
| [N-]=[N+]=NC12CC3C4CC5CC3C(C1)C(C5)C4C2 | inactive: > 100 µM |
| CC(C)[C@](O)(C(=O)OCC1=CCN2CC[C@@H](O)[C@@H]12)[C@H](C)O | inactive: > 375 µM |
| Brc1ccc(/N=N/N2CCCC2)cc1 | inactive: > 100 µM |
| CCCCCCCCCCCC[C@@H](O)[C@H]1CC[C@H]([C@H](O)CCCC[C@H](O)CCCCC[C@@H](O)CC2=C[C@H](C)OC2=O)O1 | inactive: 5.15 µM |

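48-hour exposure; five concentrations; linearly interpolated endpoints. GI50 marks 50% less growth.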 Activity calls are given as the source filed them. No stated cut-off is given here; in the data, active = GI50 up to about 1.1 µM and inactive = higher.
